Laboratory results: article PMC4336329 (PLoS ONE, 2015)
The whole screen tested about 310,000 compounds, of which about 2,200 (0.71%) showed an effect of 50% or more. The effect is printed as a negative number. This is one part of the list.

Target: human ether-à-go-go-related gene (hERG) potassium channel (human, UniProt Q12809)
Experiment: primary screen, population patch clamp on CHO cells stably expressing hERG

Sequence of human ether-à-go-go-related gene (hERG) potassium channel (Q12809 whole entry, looked up): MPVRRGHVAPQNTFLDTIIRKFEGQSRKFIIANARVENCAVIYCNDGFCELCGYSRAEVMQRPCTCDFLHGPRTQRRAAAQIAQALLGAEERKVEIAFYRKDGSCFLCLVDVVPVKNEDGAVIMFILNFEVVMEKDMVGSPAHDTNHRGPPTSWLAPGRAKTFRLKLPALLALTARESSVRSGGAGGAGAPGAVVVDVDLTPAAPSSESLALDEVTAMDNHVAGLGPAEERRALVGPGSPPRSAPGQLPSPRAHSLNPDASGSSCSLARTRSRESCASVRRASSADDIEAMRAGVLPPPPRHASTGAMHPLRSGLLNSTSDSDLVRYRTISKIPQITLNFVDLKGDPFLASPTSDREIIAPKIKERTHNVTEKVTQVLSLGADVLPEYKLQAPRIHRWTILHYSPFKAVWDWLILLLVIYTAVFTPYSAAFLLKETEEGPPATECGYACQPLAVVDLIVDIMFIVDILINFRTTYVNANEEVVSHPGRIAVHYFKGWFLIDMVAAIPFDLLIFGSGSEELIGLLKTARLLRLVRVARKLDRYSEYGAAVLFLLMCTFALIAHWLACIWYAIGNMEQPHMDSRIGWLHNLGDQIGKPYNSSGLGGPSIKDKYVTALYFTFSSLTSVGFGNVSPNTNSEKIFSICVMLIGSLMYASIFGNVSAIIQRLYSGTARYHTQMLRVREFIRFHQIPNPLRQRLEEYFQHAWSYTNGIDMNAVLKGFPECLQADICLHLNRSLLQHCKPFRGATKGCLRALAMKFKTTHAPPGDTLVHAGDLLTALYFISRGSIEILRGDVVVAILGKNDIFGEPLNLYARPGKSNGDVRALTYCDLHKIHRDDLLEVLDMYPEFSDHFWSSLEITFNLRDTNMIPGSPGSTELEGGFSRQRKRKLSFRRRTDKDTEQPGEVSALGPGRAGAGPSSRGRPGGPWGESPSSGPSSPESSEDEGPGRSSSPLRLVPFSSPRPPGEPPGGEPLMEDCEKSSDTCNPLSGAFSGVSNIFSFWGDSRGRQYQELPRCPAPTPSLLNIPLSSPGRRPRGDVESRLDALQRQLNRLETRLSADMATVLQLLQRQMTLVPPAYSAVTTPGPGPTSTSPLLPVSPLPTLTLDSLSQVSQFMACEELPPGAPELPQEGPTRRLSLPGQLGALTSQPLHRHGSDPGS

Row | SMILES | hERG current change (%, negative = inhibition) at 1uM [%]
1 | Cc1cc(C)c(NC(=O)CS(=O)CC(=O)Nc2cccnc2)c(C)c1 (stereo not shown) | 2.66
2 | O=C(CCc1ccc(S(=O)(=O)NC2CCCCC2)cc1)NCc1ccccc1 | 3.89
3 | CCCC(CCC)C(=O)Nc1cccc(-c2cn3c(n2)SCC3)c1 | 12.8
4 | O=C(CCCN1C(=O)c2ccccc2C1=O)Oc1ccc(F)cc1 | -3.02
5 | CCOC(=O)CSc1nc2ccc(S(=O)(=O)N3CCOCC3)cc2[nH]1 | 22
6 | O=C(Nc1ccc2c(c1)OCO2)c1cccc(Cl)c1 | 7.16
7 | O=C1NC2(CCCCC2)NN1c1ccccc1 | 15.5
8 | O=C(OC1CCCCC1)c1ccc(NC(=O)c2ccco2)cc1 | -16.6
9 | Cc1cc(C)c(C)c(S(=O)(=O)N[C@@H](C)C(=O)OCc2cc(=O)n3cc(Br)ccc3n2)c1C | -10.2
10 | COc1ccc(/C=C/c2nnc(NC(=O)COc3ccc(C)cc3)s2)cc1 | 8.37
11 | O=S(=O)(c1ccccc1Cl)N1CCC(O)(c2cccnc2)CC1 | 13.8
12 | O=c1cc(CN2CCc3ccccc32)c2ccc(O)cc2o1 | 12
13 | Cc1cc(=O)oc(C)c1C(=O)NCCC1=CCCCC1 | 0.393
14 | COCCNC(=O)CCn1nc(-c2ccc(C)cc2)c2ccccc2c1=O | -0.937
15 | O=C(CS(=O)(=O)c1ccccc1Cl)N1CCOCC1 | 7.8
16 | COc1ccccc1/C=C\C=N\NC(=O)c1ccco1 | 1.7
17 | O=C(Nc1ccccc1N1CCOCC1)c1cccc(S(=O)(=O)Nc2ccccc2F)c1 | -1.98
18 | O=C(Cc1ccccc1)NCC(=O)Nc1cccc(Br)c1 | 6.25
19 | NCCCC[C@H]1CNC(=S)N1CCc1cccc(F)c1 | 4.42
20 | COc1ccc2oc(C(=O)N(Cc3ccco3)Cc3cccs3)c(C)c2c1 | 4.93
21 | CN(N)c1nc2ccccc2nc1C(F)(F)F | 12.2
22 | O=C(c1cc(COc2ccc(F)cc2Cl)on1)N1CCCCC1c1cccnc1 (stereo not shown) | -9.34
23 | O=C(O)CCN1C(=O)/C(=C\c2cccc(OCC(=O)Nc3ccc(Cl)cc3)c2)SC1=S | 8.14

Row | SMILES | hERG current change (%, negative = inhibition) at 1uM [%]
24 | COc1ccccc1N1CCN(/N=C\c2ccccc2)CC1 | 7.75
25 | COc1ccc(-c2cc(C(=O)NN)[nH]n2)cc1OC | 5.53
26 | S=c1[nH]nc(-c2ccco2)n1/N=C/C(Cl)=C/c1ccccc1 | 13.5
27 | CCc1cc(C(=O)OC)c(NC(=O)CC2SC(=NC)N(C)C2=O)s1 (stereo not shown) | 9.92
28 | O=C(CCc1nnc2ccc(NCCCN3CCCC3=O)nn12)NCc1ccccc1Cl | 2.58
29 | COc1ccc(NC(=O)Nc2ccon2)c(OC)c1 | 12.6
30 | CN1CCN(C(=O)c2cccc(COc3cc(Cl)ccc3Cl)c2)CC1 | -12.3
31 | CCOc1ccc(NC(=O)/C(C#N)=C/c2cn(CC(=O)O)c3ccccc23)cc1 | 11.3
32 | c1ccc(CO/N=C(\c2ccc(C3CC3)nc2)C2CC2)cc1 | 6
33 | CCC(C)c1ccc(NC(=O)COC(=O)c2nc3nccc(C)n3n2)cc1 (stereo not shown) | 4.01
34 | CC(C)CC(C(=O)NC(C)(C)C)N(Cc1ccccc1Cl)C(=O)c1snc(C(N)=O)c1N (stereo not shown) | 8.04
35 | CC(C)(C)NC(=O)C(Cc1ccccc1)N1C(=O)c2ccccc2C1=O (stereo not shown) | 12.3
36 | Cc1cc(C)n(C(C)Sc2ccccc2)n1 (stereo not shown) | 7.9
37 | COc1cccc(C(=O)Nc2ccc3[nH]c(=O)[nH]c3c2)c1OC | 15.6
38 | CC(=O)c1ccc(N(C(=O)Cc2c[nH]c3ccccc23)C(C(=O)NC2CCCCC2)c2cccs2)cc1 (stereo not shown) | 10.9
39 | CCCc1nc2c(c(=O)c3ccccc3n2C)c(=O)n1-c1ccc(F)cc1 | 14.1
40 | COC(=O)c1ccc(CSc2nnnn2Cc2ccccc2)cc1 | -5.09
41 | CCOc1ccc(-c2nnn(CC(=O)c3ccc4c(c3)OCCO4)n2)cc1 | 3.94
42 | O=C(CN(c1ccc(F)cc1)S(=O)(=O)c1ccc2c(c1)OCCO2)Nc1ccc2c(c1)OCO2 | 9.51
43 | CC(C)C[C@@H](CN=[N+]=[N-])N1CCN(Cc2ccccc2)CCC1=O | 4
44 | CCOc1ccccc1NC(=O)Cn1nc(-c2ccco2)ccc1=O | 7.78
45 | O=C(CCN1C(=O)COc2ccccc21)N1CCN(c2ccccc2)CC1 | -3.02
46 | CCOc1ccc(NC(=O)CSc2nnc(CNC(=O)c3cccs3)o2)cc1 | 12

Row | SMILES | hERG current change (%, negative = inhibition) at 1uM [%]
47 | O=C(COC(=O)c1ccc(O)cc1O)NC1CCCCCC1 | 7.68
48 | O=C(NCc1ccccc1)c1ccc(CSc2ccccc2)o1 | -1.22
49 | Cc1ccc(-c2nc3ccccc3c(=O)n2O)cc1 | 20.5
50 | O=C(NCc1cc(F)ccc1F)C1CCC(=O)N(C2CCCCCC2)C1 (stereo not shown) | 18.9
51 | Cc1nn(C(C)C(=O)NCCc2cccs2)c(=O)c2nn(-c3ccccc3)c(C)c12 (stereo not shown) | -3.17
52 | COc1ccc(S(=O)(=O)N/N=C(/C)c2ccncc2)cc1 | -0.381
53 | Cc1ccc2oc(=O)c3cc(C(=O)N4CCN(C)CC4)sc3c2c1 | 12.9
54 | COc1ccc(C(N)=O)cc1N | 21.1
55 | O=C(COC(=O)Cc1ccccc1[N+](=O)[O-])NCc1ccc(Cl)cc1 | 5.27
56 | CC1=C(C(=O)N2CCCCC2)C(c2cccs2)NC(=O)N1 (stereo not shown) | 6.64
57 | O=C(Nc1ccsc1C(=O)NC1CCCCC1)c1ccc(F)cc1 | 1.17
58 | O=C(O)c1ccc(-n2c(-c3ccccc3)n[nH]c2=S)cc1 | 15.2
59 | CC(=O)c1ccc(N2CCN(C(=O)c3cccs3)C(C)C2)c(F)c1 (stereo not shown) | 1.21
60 | Cc1cc(S(=O)(=O)N2CCCC(N(C)CCc3ccccn3)C2)c(C)s1 (stereo not shown) | -13.9
61 | CCOc1ccc(NC(=O)CSc2nnc(-c3ccccc3Cl)n2Cc2ccco2)cc1 | 1.27
62 | Cc1oc(-c2ccc(Cl)cc2)nc1CN1CCCC(C(=O)NCc2ccco2)C1 (stereo not shown) | -56.4
63 | CCN(CC)C(=O)CSc1nc2c(sc(=S)n2-c2ccccc2)c(=O)n1-c1ccc(OC)cc1OC | 10.7
64 | CN1C(=O)C2ON(c3ccccc3)C(c3cccs3)C2C1=O (stereo not shown) | -2.68
65 | Brc1ccc(CNCC2CCCO2)cc1 (stereo not shown) | 9.87
66 | CCc1cccc2c(C(=O)CN3C(=O)N(C)C4(CCCCC4)C3=O)c[nH]c12 | 7.45
67 | Cc1ccccc1Cn1cc(/C=N/n2cnnc2)c2ccccc21 | 13.8
68 | O=C(CSc1nnc(Cc2ccc3c(c2)OCO3)n1C1CCCCC1)NC1CCCC1 | 13.2
69 | O=C(NCC1CCCO1)C1CCCN(S(=O)(=O)c2ccc(Cl)cc2)C1 (stereo not shown) | 5.63

Row | SMILES | hERG current change (%, negative = inhibition) at 1uM [%]
70 | COc1cc2c(cc1OC)CN(Cc1cc(=O)n3cc(C)ccc3n1)CC2 | -7.37
71 | O=C(Nc1ccc(Br)cc1F)c1cccnc1 | -1.23
72 | COc1ccc(CNC(=O)c2ccc(N3CCOCC3)c([N+](=O)[O-])c2)cc1 | -7.32
73 | CC1Cc2ccccc2N1C(=O)CN1C(=O)CN(C)C(=O)c2ccccc21 (stereo not shown) | 11.1
74 | CCn1c(SCC(=O)NNC(=O)c2ccc(C)cc2)nnc1C1CC1 | 18.7
75 | COc1ccccc1N1CCN(S(=O)(=O)CCNC(=O)Cc2ccc(F)cc2)CC1 | 6.71
76 | CCN(CC)C(=O)C(Oc1ccc(C)nc1[N+](=O)[O-])c1ccccc1 (stereo not shown) | 12.9
77 | COc1ccccc1-n1cnc2cc(NC(=O)c3ccco3)ccc21 | 3.6
78 | O=C(CNC(=O)Cc1cccc2ccccc12)NCc1ccccc1F | 9.57
79 | CC(NC(=O)Cc1ccccc1)C(c1ccccc1)N1CCOCC1 (stereo not shown) | 20.3
80 | COCCNC(=O)COc1ccccc1C | 8.14
81 | Cc1ccc(/C=C2\C(=O)NC(=O)N(CCc3ccc(F)cc3)C2=O)s1 | 11.9
82 | CCNC(=O)NC(=O)C(C)Sc1ccc2c(c1)OCCO2 (stereo not shown) | 7.84
83 | COCCn1c(C)cc(C(=O)COc2ncnc3ccc(Br)cc23)c1C | 4.21
84 | CN(C)CCCN(C(=O)/C=C/c1cccs1)c1nc2ccc(F)cc2s1.Cl | 4.03
85 | CCC(C)NC(=O)c1cn(-c2cccc(OC)c2)c(=O)c2ccccc12 (stereo not shown) | 9.02
86 | Cc1c(N)ccc(-n2nc3ccccc3n2)c1C | 7.32
87 | CC1(C)CC(=O)C(N=Nc2ccc(F)cc2)=C(O)C1 | 6.08
88 | c1ccc2c(c1)nnn1c3ccccc3nc21 | 9.5
89 | O=C(NCc1ccc(Cl)cc1)c1ccc(CNc2c(N3CCCC3)c(=O)c2=O)cc1 | 9.61
90 | Cc1cccc(C)c1NC(=O)CN(C)C(=O)c1ccc(N2C(=O)CCC2=O)cc1 | 5.56
91 | Cc1onc(-c2ccccc2)c1C(=O)N1CCC(CO)(Cc2ccccc2)CC1 | 16.1
